This note sets out measurements from paper PMC7819943, “Rice protein-binding microarrays: a tool to detect cis-acting elements near promoter regions in rice”.

Some of the results follow.

The target in this assay is T1, OsWOX13 (Oryza sativa, UniProt Q5QMM3 1-267).
T1 sequence: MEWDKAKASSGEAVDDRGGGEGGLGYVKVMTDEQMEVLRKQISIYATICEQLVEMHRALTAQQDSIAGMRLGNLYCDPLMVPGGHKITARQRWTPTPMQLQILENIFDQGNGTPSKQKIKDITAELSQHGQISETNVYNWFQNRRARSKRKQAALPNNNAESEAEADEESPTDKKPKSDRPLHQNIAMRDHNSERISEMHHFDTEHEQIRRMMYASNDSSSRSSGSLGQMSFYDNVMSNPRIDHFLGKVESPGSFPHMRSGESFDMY
Put plainly: protein-binding microarray (RPBM); PBS, 2% BSA, 51.3 ng/ul salmon testes DNA, 50 uM zinc acetate, 200 nM TF, 25 C, 1 h; high values mean tight binding. As to conditions: protein: recombinant; tags: N-terminal polyhistidine and DsRed monomer fusion (pET32a); label: CyDye5-dUTP incorporated in the synthesized complementary strand; 3' TTTTT single-stranded linker to array surface; dsDNA, one strand shown. In a few lines: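 In PBS with 2% BSA, salmon testes DNA and 50 µM zinc acetate, 200 nM protein was incubated on a custom Agilent array at 25 °C for 1 h and then washed off. The array had been made double-stranded by primer extension with Cy5-dUTP and blocked with 2% BSA. The proteins were transcription factors fused N-terminally to polyhistidine and DsRed, expressed in E. coli BL21-CodonPlus and purified on Ni–NTA. The binding signal is per-feature fluorescence intensity (arbitrary units) from an Axon 4000B scanner.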
In the case of “TGTTGACTGTTATTTTATTTATCTCTCGCCTAAATAAGTACGGAGTCACCTAGTGCAG”, the binding signal is 12000 fluorescence intensity (a.u.). Under “GATAATGAAATTGCTATATATTTATCGACAAATTTTCTCTCGGAGTCACCTAGTGCAG” stands 12900 fluorescence intensity (a.u.). Under “AATAATTAGTGGTTTGCAGCTTACAAACTTACAATTTACACGGAGTCACCTAGTGCAG” stands 8430 fluorescence intensity (a.u.); under “TTTATATTGATTATAAATGAAATGTCTTATTAGCGATTGACGGAGTCACCTAGTGCAG”, 36900 fluorescence intensity (a.u.); under “ACTGCACGTGATTGGTCCTTAAAGGTGGCCGTGCTCGGGTCGGAGTCACCTAGTGCAG”, 43700 fluorescence intensity (a.u.). Under “GTTAACCATTTTCACTTTAATTTGTCCTTTCGATTGCAACCGGAGTCACCTAGTGCAG” stands 4680 fluorescence intensity (a.u.); under “ATTATCTAATTTATCATCCAAAATCAACGAACAAAGCAGTCGGAGTCACCTAGTGCAG”, 7380 fluorescence intensity (a.u.); under “CAATTAATTTCAATTGCAGCAAATTTACTTTCTTCAAGCTCGGAGTCACCTAGTGCAG”, 33700 fluorescence intensity (a.u.).

As for “CAGTATCCAAATTTAAATTTTCAAACTTAACTTGTAAGTTCGGAGTCACCTAGTGCAG”, the binding signal was 4450 fluorescence intensity (a.u.). Under “GATTGATGGAGACTGCTAGATGCAAACGTGTCCAAACTGCCGGAGTCACCTAGTGCAG” stands 21300 fluorescence intensity (a.u.); under “GTTCAAATTATTTGTTCTGCGATTACTAGATATAAGCTAACGGAGTCACCTAGTGCAG”, 10700 fluorescence intensity (a.u.). As to “ATTATTATTAATAATAATTTTATGGGCCATCTATTTATTTCGGAGTCACCTAGTGCAG”, the binding signal was 5520 fluorescence intensity (a.u.).

In the case of “CCAATGATTCACATCAACAGAATGACTATCGAAACTTATGCGGAGTCACCTAGTGCAG”, the binding signal was 5310 fluorescence intensity (a.u.). Under “AGATTCTATCTGCTAATCATATGAAAGTAATAGAAATGTCCGGAGTCACCTAGTGCAG” stands 3320 fluorescence intensity (a.u.); under “CATTGGATTGCAAAATCTACTGAATGATAAACAAAGGATTCGGAGTCACCTAGTGCAG”, 3410 fluorescence intensity (a.u.). Next, “GAGCCTAATTAATTCGTGATTAGCCTAATGACGGATTAATCGGAGTCACCTAGTGCAG”: 57400 fluorescence intensity (a.u.). Next, “ACCTAACAGAATTAATCACAAGCAAGGAGAGCTAGCAGGCCGGAGTCACCTAGTGCAG”: 25100 fluorescence intensity (a.u.).

Regarding “TAATTAATTATAAGCTAATGAATCCCTATTTTAGATACTCCGGAGTCACCTAGTGCAG”, the binding signal is 35500 fluorescence intensity (a.u.). “TTCAAATTTTGATTTTAAAATTTGAATCGAAAATTTTCAACGGAGTCACCTAGTGCAG”: the binding signal is 10900 fluorescence intensity (a.u.). Next, “TTTTGAAATTTATTTATTTATTGAAAGAATCGAGGATGTTCGGAGTCACCTAGTGCAG”: 4270 fluorescence intensity (a.u.). Under “AGTAGTAATTATATACCATCAGATATATAGACAGTACTTTCGGAGTCACCTAGTGCAG” stands 6840 fluorescence intensity (a.u.); under “TAACAGATTGGAGGAGGAGCAGGAGTACTCACGTATTACCCGGAGTCACCTAGTGCAG”, 8000 fluorescence intensity (a.u.).

Take “CGGCCCAGGTGGGAGAGGAGGGGAGGGGAGGGGAGGGATGCGGAGTCACCTAGTGCAG”: the binding signal is 6460 fluorescence intensity (a.u.). Under “AACGCAATCTAAACCCCATAATTTAACATAATAACAAAATCGGAGTCACCTAGTGCAG” stands 5740 fluorescence intensity (a.u.); under “CCCATATTGCTGATTTCACTTAATTTGTCCTCTCTGTTCTCGGAGTCACCTAGTGCAG”, 9610 fluorescence intensity (a.u.); under “TTTGATTTACCATGCTTTTGAGTTCTACAACCACATCTCACGGAGTCACCTAGTGCAG”, 15300 fluorescence intensity (a.u.). Under “CGCTTAAATGACTGAATTAATGCTAACCCTGTTCCAGCTCCGGAGTCACCTAGTGCAG” stands 36200 fluorescence intensity (a.u.); under “GCGTGATTTAAACTCGACGTCAAGAAGAGGAATCTAAAGTCGGAGTCACCTAGTGCAG”, 16100 fluorescence intensity (a.u.). Next, “CCTAATTTCTATTTCTCTAATCCTAGTCTCATGCTTCTGCCGGAGTCACCTAGTGCAG”: 21800 fluorescence intensity (a.u.); “AACATAATTATGAGACGAGAAGAAGCAGAACACCATGTTGCGGAGTCACCTAGTGCAG”: 14700 fluorescence intensity (a.u.); “ATTGACAGGCGAGGGATATTTGCAGAAAGAACCCTGGGTACGGAGTCACCTAGTGCAG”: 12400 fluorescence intensity (a.u.).

For “TCAAACCAATTCTTTGATTAAATCATTTGCATAGCCAATTCGGAGTCACCTAGTGCAG”, the binding signal was 3790 fluorescence intensity (a.u.). Under “CATACAGCTGTTGATTGTTTATCCCTATGTATAAGCCAGCCGGAGTCACCTAGTGCAG” stands 15000 fluorescence intensity (a.u.); under “ATGGATGTACTATGATTTGATTTTAATTTTCAACACCTGCCGGAGTCACCTAGTGCAG”, 16800 fluorescence intensity (a.u.). Under “GGGAGAGAATGTGCTAATTAATTGCATGCATGCATGCACGCGGAGTCACCTAGTGCAG” stands 12000 fluorescence intensity (a.u.).

For the sequence “TCAACTGAATTTACAAATGTAAATTTAGTTATATAGGATTCGGAGTCACCTAGTGCAG”, the binding signal is 4360 fluorescence intensity (a.u.).

Turning to “AAACTAAATTTATAAATTGGAGCTCTACAAGGACCTAAAACGGAGTCACCTAGTGCAG”, the binding signal was 26900 fluorescence intensity (a.u.). Under “CTGATTTGACTGAATGAATGAATTAATTAATGAGATGTATCGGAGTCACCTAGTGCAG” stands 61600 fluorescence intensity (a.u.); under “ACTAATTTGATATGAAAGTTGGACTTCTCATTGCAGCTCACGGAGTCACCTAGTGCAG”, 23300 fluorescence intensity (a.u.). Under “TAAACTCCAAGTTGATTATCCAACGAATCGTAGCCTCGAGCGGAGTCACCTAGTGCAG” stands 5690 fluorescence intensity (a.u.). Next, “AATGTGGACAATTCAATCAAAATCTCTTATATTTAGGGACCGGAGTCACCTAGTGCAG”: 7540 fluorescence intensity (a.u.); “ATTACTAATTACTGTATGTTACTTGACTAAACAACCTATGCGGAGTCACCTAGTGCAG”: 27700 fluorescence intensity (a.u.).
